Source: publication PMC10668032
Some of the results follow. At the low end of the ranking, values are background and their order means little.

Target: SIX1-Q177R homeodomain (UniProt Q15475)
Test: universal protein binding microarray
Settings: Universal all-10-mer PBM (8x60K, AMADID 030236), 300 nM GST-tagged protein, Alexa Fluor 488 anti-GST; buffer, salt, pH and temperature not stated; high values mean tight binding; most listed sequences are background and not binding sites; double strand, one strand shown

| Sequence | binding signal [E-score] |
| --- | --- |
| AATTCGCT | -0.191 |
| ATCCCCAG | 0.04 |
| AGAACACA | 0.249 |
| CTTTGCGC | -0.0123 |
| GGAATGAA | -0.114 |
| GGAGTTCA | 0.0916 |
| TCTCAGCA | -0.142 |
| AACCGCGC | -0.0865 |
| CAGCGTGA | 0.0115 |
| CCTGCATC | -0.136 |
| ACAGCACT | -0.0576 |
| CGGGATAG | -0.0896 |
| GCGACTGA | -0.289 |
| ACCCAGTA | 0.175 |
| GACAACGC | -0.124 |
| GCGTTTTA | 0.0462 |
| ACTCTCCC | 0.163 |
| GTACCATA | 0.096 |
| CTATGTTC | -0.0811 |
| CATGACAC | 0.473 |
| GATATGTA | -0.208 |
| AACTAATT | -0.183 |
| GCGGACGA | -0.00224 |
| AAAAGTTC | -0.251 |

| Sequence | binding signal [E-score] |
| --- | --- |
| ACTTTATA | -0.0635 |
| CCTCTGAA | 0.0604 |
| TAAGCACA | 0.141 |
| CCGGCCCG | 0.141 |
| GCCCATCC | 0.101 |
| CATAACTA | 0.0581 |
| AGTCGTTG | -0.218 |
| AATCACCT | -0.0811 |
| GAACACGC | 0.393 |
| AGCCGCAA | -0.176 |
| CTCCACCA | 0.147 |
| TCTTTCCA | -0.218 |
| CTCGGCTC | -0.177 |
| GACGGAAA | -0.31 |
| ATCGTCGC | -0.0464 |
| AAGACCTT | -0.257 |
| ATTATTGG | -0.118 |
| TCTGGACA | 0.0927 |
| ATCAGAGG | -0.202 |
| CTAACGGC | -0.181 |
| TCCATGGA | 0.16 |
| GGGAGTAA | 0.225 |
| CAAGCGCA | -0.0604 |
| ACTCCAAG | 0.2 |

| Sequence | binding signal [E-score] |
| --- | --- |
| TAGGCATA | -0.0263 |
| GCAGGGGA | 0.00588 |
| GTTCACCA | -0.136 |
| CAAGACAA | -0.194 |
| TAGAATCA | -0.109 |
| GCGCTTAA | -0.185 |
| CACAGGTG | 0.307 |
| CTGGGATC | 0.0802 |
| AGTTAAGG | 0.146 |
| AATGTTCA | -0.194 |
| GCTCCCAA | -0.22 |
| GAGAGGGA | -0.19 |
| CCACTGGC | -0.141 |
| TCACGCCA | -0.0678 |
| CGGGGCAA | -0.0457 |
| AACCCAGC | -0.06 |
| AGTCCCTC | -0.133 |
| AAAAGTGG | -0.121 |
| CACCACTA | 0.349 |
| AGATAGCG | -0.165 |
| GGTAGACA | 0.139 |
| ACGAGTGA | 0.0845 |
| GCGGGCAA | -0.13 |
| AACAAACT | -0.135 |

| Sequence | binding signal [E-score] |
| --- | --- |
| GTGAGTGA | -0.00624 |
| CATTCAAG | -0.127 |
| AAACGATA | -0.0934 |
| CATAAGAC | -0.0698 |
| GGGTACAA | 0.17 |
| GCTTTAGA | -0.151 |
| CGATCAGA | -0.17 |
| AGCTTACG | -0.101 |
| CCACCACG | 0.0217 |
| GGCCGACC | -0.00408 |
| GAATATAC | -0.199 |
| AGTGAGGC | -0.119 |
| AGCTTATG | -0.0459 |
| ATCAGCTC | -0.0842 |
| TTAAGAAA | -0.138 |
| AAAGCTTG | -0.229 |
| CTAGTTAC | 0.0699 |
| AATTCAGG | -0.00288 |
| CAAGGGTC | 0.00995 |
| GATCGATC | 0.1 |
| ACTCCTAT | 0.0321 |
| CCGACTCG | 0.159 |
